Measured values reported in paper PMC4336329 (PLoS ONE, 2015).
Out of some 310,000 compounds screened, about 2,200 (0.71%) showed an effect of 50% or more. The effect is printed as a negative number. The list shows a part of the results.

What follows are molecules tested against human ether-à-go-go-related gene (hERG) potassium channel (human, UniProt Q12809) (assay: primary screen, population patch clamp on CHO cells stably expressing hERG).
Sequence of human ether-à-go-go-related gene (hERG) potassium channel (Q12809 whole entry, looked up): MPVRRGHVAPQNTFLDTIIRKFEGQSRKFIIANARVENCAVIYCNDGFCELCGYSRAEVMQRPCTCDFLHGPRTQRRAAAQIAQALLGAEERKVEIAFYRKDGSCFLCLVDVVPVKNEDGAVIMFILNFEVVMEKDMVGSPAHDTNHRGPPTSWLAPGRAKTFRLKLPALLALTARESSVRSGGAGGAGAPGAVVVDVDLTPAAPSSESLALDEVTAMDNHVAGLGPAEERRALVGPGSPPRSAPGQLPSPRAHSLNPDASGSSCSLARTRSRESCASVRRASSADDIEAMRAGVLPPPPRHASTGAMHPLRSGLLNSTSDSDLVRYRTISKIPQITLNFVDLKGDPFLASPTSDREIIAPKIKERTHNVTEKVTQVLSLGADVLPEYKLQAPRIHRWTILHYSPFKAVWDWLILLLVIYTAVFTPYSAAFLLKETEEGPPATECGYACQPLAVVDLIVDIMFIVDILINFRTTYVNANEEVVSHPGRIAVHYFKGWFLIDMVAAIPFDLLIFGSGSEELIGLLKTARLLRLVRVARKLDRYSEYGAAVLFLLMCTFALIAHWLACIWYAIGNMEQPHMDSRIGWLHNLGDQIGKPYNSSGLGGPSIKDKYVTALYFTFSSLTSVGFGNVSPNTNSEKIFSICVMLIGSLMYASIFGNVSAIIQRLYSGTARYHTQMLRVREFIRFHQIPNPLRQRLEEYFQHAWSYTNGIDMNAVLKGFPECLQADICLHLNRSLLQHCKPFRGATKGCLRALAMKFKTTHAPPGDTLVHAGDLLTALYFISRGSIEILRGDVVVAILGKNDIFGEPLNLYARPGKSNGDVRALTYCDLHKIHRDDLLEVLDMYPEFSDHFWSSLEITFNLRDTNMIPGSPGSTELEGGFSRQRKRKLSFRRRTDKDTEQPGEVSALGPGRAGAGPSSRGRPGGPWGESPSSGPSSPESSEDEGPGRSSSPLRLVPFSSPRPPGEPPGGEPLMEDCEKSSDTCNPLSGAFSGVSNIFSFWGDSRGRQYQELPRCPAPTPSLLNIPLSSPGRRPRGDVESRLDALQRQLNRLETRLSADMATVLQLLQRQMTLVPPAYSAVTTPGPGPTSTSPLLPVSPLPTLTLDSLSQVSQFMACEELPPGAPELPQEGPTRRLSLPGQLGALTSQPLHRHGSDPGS
With `COc1ccccc1CNC(=O)c1ccc(OC(C)C)cc1` the “hERG current change (%, negative = inhibition) at 1uM” value was 19.4%.
For `COC(=O)C1=C(C)OC(N)=C(C#N)C1C1CCCCC1` (stereo not shown), the “hERG current change (%, negative = inhibition) at 1uM” value was 13.9%.
For `COc1ccc(NS(=O)(=O)c2cccc(N/C(=N\S(=O)(=O)c3ccccc3)c3ccc(F)cc3)c2)cc1`, the “hERG current change (%, negative = inhibition) at 1uM” value was 6.56%.
With `CC(=O)Nc1ccc(C2=NNC(=Nc3cccc(S(=O)(=O)N(C)C)c3)SC2)cc1` the “hERG current change (%, negative = inhibition) at 1uM” value was 10.8%.
`COc1ccc(CNC(=O)C2CCC(CNc3c(N4CCCCC4)c(=O)c3=O)CC2)cc1` (stereo not shown) was tested, and the “hERG current change (%, negative = inhibition) at 1uM” value was 10.7%.
`Cc1noc(C)c1CSCC(=O)Nc1ccc(S(=O)(=O)C(F)F)cc1` was tested, and the “hERG current change (%, negative = inhibition) at 1uM” value was -2.84%.
In the case of `COc1ccc(C)cc1S(=O)(=O)N(C)CC(=O)N1CCC(C(N)=O)CC1`, the “hERG current change (%, negative = inhibition) at 1uM” value was 9.99%.
In the case of `Cc1nnc(SCC(=O)Nc2ccccc2F)n1-c1ccc(F)cc1`, the “hERG current change (%, negative = inhibition) at 1uM” value was 11.2%.
In the case of `Cc1ccc(NC(=O)C2CC(=O)N(Cc3ccco3)C2)cc1` (stereo not shown), the “hERG current change (%, negative = inhibition) at 1uM” value was 1.48%.
For `CCN(CC)c1ncc(C#N)c(N)n1`, the “hERG current change (%, negative = inhibition) at 1uM” value was 9.78%.
`O=C(NCCc1ccccc1Cl)C1CCC(=O)N(CC2CCCCC2)C1` (stereo not shown) was tested, and the “hERG current change (%, negative = inhibition) at 1uM” value was 0.308%.
For `COc1cc(NC(=O)C2CCN(c3cnccn3)CC2)cc(OC)c1`, the “hERG current change (%, negative = inhibition) at 1uM” value was 0.451%.
With `COc1cccc(-c2cc(=O)c3cc(NC(=O)c4ccc(Cl)cc4)ccc3[nH]2)c1` the “hERG current change (%, negative = inhibition) at 1uM” value was 16.8%.
For `COc1ccc(-c2noc(N(C)CC(=O)Nc3cccc(C(F)(F)F)c3)n2)cc1`, the “hERG current change (%, negative = inhibition) at 1uM” value was 12.5%.
In the case of `COc1ccc(N2C(=O)C3CCCN3C2=S)cc1` (stereo not shown), the “hERG current change (%, negative = inhibition) at 1uM” value was 19.9%.
In the case of `COc1ccccc1OCC(=O)Nc1ccc2c(c1)OCO2`, the “hERG current change (%, negative = inhibition) at 1uM” value was 3.08%.
`Cc1cc(NCCc2ccc(Cl)cc2)n2ncnc2n1` was tested, and the “hERG current change (%, negative = inhibition) at 1uM” value was -17.2%.
In the case of `CCCOc1ccc(N2C(=O)CC(SC(=NCC)NCC)C2=O)cc1` (stereo not shown), the “hERG current change (%, negative = inhibition) at 1uM” value was 10.1%.
For `NC(=O)c1cnn2c(-c3cccc(C(F)(F)F)c3)ccnc12`, the “hERG current change (%, negative = inhibition) at 1uM” value was 6.39%.
For `Cc1c(N(C)CS(=O)(=O)O)c(=O)n(-c2ccccc2)n1C.[Na]`, the “hERG current change (%, negative = inhibition) at 1uM” value was 15.8%.
`O=C(CN1CCN(c2ccccn2)CC1)Nc1cccc(S(=O)(=O)N2CCOCC2)c1` was tested, and the “hERG current change (%, negative = inhibition) at 1uM” value was 2.34%.
For `CCC(C)N1CCN(C(=O)Cc2ccccc2)CC1.O=C(O)C(=O)O` (stereo not shown), the “hERG current change (%, negative = inhibition) at 1uM” value was 7.51%.
For `O=C(/C=C/c1ccccc1)NCCS(=O)(=O)N1CCN(c2ccc(F)cc2)CC1`, the “hERG current change (%, negative = inhibition) at 1uM” value was -1.58%.
With `Oc1ccc2ccccc2c1C=NC1CCCCC1` the “hERG current change (%, negative = inhibition) at 1uM” value was 7.74%.
For `CCC(Sc1nc(N)c(NC(=O)c2ccco2)c(=O)[nH]1)C(=O)O` (stereo not shown), the “hERG current change (%, negative = inhibition) at 1uM” value was 13.1%.
In the case of `Cc1c(C(=O)N(Cc2ccccc2)Cc2cccnc2)cnn1-c1ccc(F)cc1`, the “hERG current change (%, negative = inhibition) at 1uM” value was -4.77%.
With `Cc1ccc(NC(=O)C(C)c2cccc(C(=O)c3ccccc3)c2)cc1` (stereo not shown) the “hERG current change (%, negative = inhibition) at 1uM” value was -0.108%.
In the case of `CN1CCN(CCCCOc2ccc(F)cc2)CC1`, the “hERG current change (%, negative = inhibition) at 1uM” value was 5.88%.
With `Cc1ccccc1OCCn1cc(C(=O)C(=O)N2CCOCC2)c2ccccc21` the “hERG current change (%, negative = inhibition) at 1uM” value was 6.91%.
`CC(OC(=O)CN1C(=O)NC2(CCCC2)C1=O)C(=O)Nc1cccc(Cl)c1Cl` (stereo not shown) was tested, and the “hERG current change (%, negative = inhibition) at 1uM” value was 3.71%.
For `CSc1nnnn1-c1c(C)cc(C)cc1C`, the “hERG current change (%, negative = inhibition) at 1uM” value was 12.2%.
In the case of `COCc1nnc(NC(=O)CC(c2ccccc2)c2ccccc2)s1`, the “hERG current change (%, negative = inhibition) at 1uM” value was 11.1%.
With `Cc1cc(C)cc(C(=O)NC2CC(C)(C)NC(C)(C)C2)c1` the “hERG current change (%, negative = inhibition) at 1uM” value was 16%.
For `COc1ccc(NC(=O)Cn2cnc3ccccc3c2=O)cc1OC`, the “hERG current change (%, negative = inhibition) at 1uM” value was 11.7%.
`CS(=O)(=O)N1N=C(c2ccc(Br)cc2)CC1c1ccc2c(c1)OCO2` (stereo not shown) was tested, and the “hERG current change (%, negative = inhibition) at 1uM” value was 2.96%.
With `O=S(=O)(CCN1CCOCC1)c1ccc(Oc2ccc(S(=O)(=O)CCN3CCOCC3)cc2)cc1` the “hERG current change (%, negative = inhibition) at 1uM” value was 12.2%.
For `COc1cc(C2/C(=C(\O)c3ccc4c(c3)OCCO4)C(=O)C(=O)N2CCN2CCOCC2)cc(OC)c1OC` (stereo not shown), the “hERG current change (%, negative = inhibition) at 1uM” value was 16.5%.
For `CCc1cc2c3c([nH]c2cc1S(=O)(=O)NCCCOC)CC(C)(C)CC3=O`, the “hERG current change (%, negative = inhibition) at 1uM” value was 11.9%.
For `COc1ccccc1NC(=O)Nc1nc(C(C)(C)C)cs1`, the “hERG current change (%, negative = inhibition) at 1uM” value was 15%.
`O=C(/C=C/c1ccccc1[N+](=O)[O-])Nc1cccnc1` was tested, and the “hERG current change (%, negative = inhibition) at 1uM” value was -1.85%.
With `O=C(OCC(=O)N1CCN(S(=O)(=O)c2ccc(Cl)cc2)CC1)c1cc(Br)ccc1O` the “hERG current change (%, negative = inhibition) at 1uM” value was 12.4%.
`Cc1coc2c(C)c3oc(=O)c(CCC(=O)N4C[C@H]5C[C@@H](C4)c4cccc(=O)n4C5)c(C)c3cc12` was tested, and the “hERG current change (%, negative = inhibition) at 1uM” value was -10.7%.
With `OCCSc1c(F)c(SCCO)c(SCCO)c(F)c1SCCO` the “hERG current change (%, negative = inhibition) at 1uM” value was 6.7%.
